Reference: PubChem BioAssay AID1645882 (National Center for Advancing Translational Sciences (NCATS), 2021)
Out of some 16,000 compounds screened, about 120 (0.75%) were called active. Roughly 4% stayed inconclusive and do not appear here. The call rests on the fitted dose curve; in most records, active means well fitted inhibition curve with a large enough effect; inconclusive means small, poorly fitted or top-dose-only effect; inactive means no such curve, though single readings can be large or run the other way. The list shows a part of the results.

target: Rap guanine nucleotide exchange factor 3 (Homo sapiens) (UniProt O95398); experiment: Validation qHTS for antagonist of cAMP-regulated guanine nucleotide exchange factor 3 (EPAC1); conditions: EPAC1 Rap1B-BODIPY-GDP exchange, fluorescence; series mostly up to 150 µM; activity change, negative = inhibition: at the top concentration;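 further: plate controls were DMSO for no effect and ATA control for full effect; nearly all actives have a fitted effect of over 75% in size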
Chain of UniProt O95398 (O95398 whole entry, looked up): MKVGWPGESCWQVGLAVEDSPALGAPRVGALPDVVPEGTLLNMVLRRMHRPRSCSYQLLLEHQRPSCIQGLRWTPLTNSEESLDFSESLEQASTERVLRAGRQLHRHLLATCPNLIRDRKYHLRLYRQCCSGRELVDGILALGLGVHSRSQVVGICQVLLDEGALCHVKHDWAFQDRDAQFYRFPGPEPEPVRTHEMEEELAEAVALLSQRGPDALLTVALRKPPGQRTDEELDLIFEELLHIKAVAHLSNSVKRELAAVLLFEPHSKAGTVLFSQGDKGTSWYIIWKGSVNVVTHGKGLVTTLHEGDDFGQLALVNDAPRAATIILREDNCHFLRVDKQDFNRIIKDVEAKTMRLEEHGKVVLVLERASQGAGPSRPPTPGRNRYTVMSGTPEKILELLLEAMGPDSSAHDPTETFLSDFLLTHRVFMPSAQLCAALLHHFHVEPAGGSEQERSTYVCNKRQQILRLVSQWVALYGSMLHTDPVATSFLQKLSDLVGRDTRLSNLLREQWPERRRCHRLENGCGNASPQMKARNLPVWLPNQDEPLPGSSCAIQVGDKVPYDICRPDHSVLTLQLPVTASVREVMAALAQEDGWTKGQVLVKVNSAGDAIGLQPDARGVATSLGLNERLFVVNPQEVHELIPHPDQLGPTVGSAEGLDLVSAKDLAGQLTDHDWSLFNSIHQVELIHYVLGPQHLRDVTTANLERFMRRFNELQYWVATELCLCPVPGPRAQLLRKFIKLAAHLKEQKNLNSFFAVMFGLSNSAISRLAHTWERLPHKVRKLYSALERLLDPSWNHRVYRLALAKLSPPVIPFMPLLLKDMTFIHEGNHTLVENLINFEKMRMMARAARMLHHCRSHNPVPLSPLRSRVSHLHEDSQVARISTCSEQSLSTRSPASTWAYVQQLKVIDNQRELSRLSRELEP
Procedure, shortened: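 Nucleotide exchange followed as fluorescence loss when BODIPY-GDP leaves Rap1B (480 nm excitation, 540 nm emission), read at 5 min intervals over 30 min. Reaction: 100 nM EPAC1, 250 nM RAP1B-BODIPY-GDP, 50 uM GDP; ATA and DMSO define normalization.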

Activity change, negative = inhibition, inactive:
O=[N+]([O-])c1cccc2c(Br)[nH]nc12
COc1ccccc1CNc1ncncc1-c1ccccc1CN(C)C -0.669%
COC(=O)C[C@H]1c2cc(F)ccc2S(=O)(=O)N1Cc1ccccc1OC -3.88%
CS(=O)(=O)N1CCC2(CCN(Cc3ccncc3)CC2)CC1 6.06%
NC1(C(=O)O)CCC1 8.57%
CC(Cc1ccccc1)(NC(=O)CN)c1ccccc1 (centres undefined) 6.18%
O=c1cnc2cnc(Oc3ccccc3)nc2n1Cc1ccc(F)cc1 -13.3%
CC(CN1c2ccccc2Sc2cccnc21)N(C)C (centres undefined) 14.6%
Cc1c(C(=O)N2CC3CCC2C3)sc2ncnc(NCCc3ccccn3)c12 (centres undefined) 1.13%
O=c1c(-c2cccs2)nc2cnc(N3CCOCC3)nc2n1-c1ccccc1 7.86%
CC(C)(C)C(=O)OCOC(=O)[C@@H]1N2C(=O)[C@@H](NC(=O)[C@H](N)c3ccccc3)[C@H]2SC1(C)C -14.3% [at 75.8 µM]
O=C(OCc1ccccc1)c1ccc(O)cc1 -5.07%
O=c1c(-c2ccccc2)nc2cnc(Nc3ccccc3)nc2n1C[C@H]1CCCO1 -10.1%
CCc1cc[n+](CC(=O)c2ccc(F)cc2)cc1C(=O)O 19.8%
COc1cc(CN2CCC3(CCC(CNC(=O)c4ccco4)O3)CC2)cc(OC)c1 (centres undefined) 17.7%
NC(Cc1c[nH]c2ccccc12)C(=O)NCC(=O)O (centres undefined) 11.3%
O=C(c1cc(C(F)(F)F)cc(C(F)(F)F)c1)N1CCC2(CC1)CN(c1ccccc1)C2 -14.6%
Cc1noc(C)c1-c1nc(N2CCOCC2)c2ccccc2n1 27.9%
CC(=O)CCC(=O)O 13.7%
Cc1nn(-c2ccccc2)c(C)c1CC(=O)NCC1Cc2cc(F)cc(-c3cccnc3)c2O1 (centres undefined) 5.66%
CN1CCN(c2ncc3ncc(=O)n(Cc4cccs4)c3n2)CC1 12.1%
N#Cc1cccc(-c2nc(NCCN3CCOCC3)c3ccccc3n2)c1 4.16%
CC(=O)NC(CCC(=O)O)C(=O)O (centres undefined) 1.05%
COc1cccc(OC)c1OCCNCC1COc2ccccc2O1 (centres undefined)
CC(C)C1NC(C(=O)O)Cc2c1[nH]c1ccccc21 (centres undefined) 26.8%
CN(C)C(=O)c1ccc(-c2ccc3ncnc(NC4CC4)c3c2)cc1 -5.36%
CC1C(O)CC2C(C(=O)O)=CO[C@@H](O[C@H]3OC(CO)C(O)C(O)C3O)C21 (some centres undefined) 9.38%
O=c1c(CCc2ccccc2)nc2cnc(N3CCOCC3)nc2n1Cc1cccs1 5.68%
CCOc1ccc(C(=O)c2ccc(OC)c(O)c2O)cc1 -5.19%
O=C1NCN(c2ccccc2)C12CCN(CCCC(c1ccc(F)cc1)c1ccc(F)cc1)CC2
O=C(Nc1ccccc1)N1CCCC2(CCN(S(=O)(=O)c3ccccc3)CC2)C1 8.56%
Cc1cc(-c2ccnc(-n3ncc(C(=O)NCC4CCCO4)c3C3CC3)n2)c(C)s1 (centres undefined) 22.3%
COc1ccc(Oc2ncc3nc(C)c(=O)n(Cc4cccs4)c3n2)cc1 9.69%
COc1cccc(-c2nc(NCc3cccs3)c3ccccc3n2)c1 -3.5%
OC1(c2cccnc2)CCN(Cc2ccc3c(c2)CN(Cc2cccc4nccnc24)CCO3)CC1 1.4%
Cn1nnnc1SCC1=C(C(=O)O)N2C(=O)C(NC(=O)C(OC=O)c3ccccc3)C2SC1 (centres undefined) 10.2%
COc1ncc2nc(-c3ccccc3)c(=O)n(Cc3cccs3)c2n1 -2.57%
COC(=O)[C@H]1C2CC3c4[nH]c5ccccc5c4CCN3CC2CC[C@@H]1O (some centres undefined) 7.45%
COc1c2ccoc2nc2c(OC)c(O[C@@H]3O[C@H](C)[C@@H](O)[C@@H](O)[C@H]3O)ccc12 -8.46%
COc1cc(CNS(=O)(=O)CCl)cc(OC)c1OC 9.12%
CCCC(=O)O -5.51%
C[C@]12CC[C@@H]3c4ccc(O)cc4CC[C@H]3[C@@H]1CC[C@@H]2OC(=O)CCC1CCCC1
N=C(C[C@@H](O)COc1ccccc1-c1ccccc1)N1CCCCC1 8.43%
CN1CCN(C2=Cc3ccccc3Oc3ccc(Cl)cc32)CC1
COCc1c(C(=O)NC2CCCC2)cnn1-c1nccc(-c2cc(C)sc2C)n1 6.67%
CCC(Cc1c(I)cc(I)c(N)c1I)C(=O)O (centres undefined)
CCC(NC(C)C)C(O)c1ccc(O)c(O)c1 (centres undefined)
CO[C@H]1[C@H](NC(=O)c2ccco2)c2ccccc2C12CCN(Cc1cccn1-c1ccccn1)CC2 1.26%
N#CCCn1c(=O)c(-c2ccc(Cl)cc2)nc2cnc(Nc3ccccc3)nc21 71.4%
CNC(CC(=O)O)C(=O)O (centres undefined) -0.137%
CCOC(=O)c1ccc(-c2c(-c3ccc4c(c3)OCO4)noc2C)cc1F -5.56%
O=C(c1csnn1)N1CCC[C@@]2(CCN(c3ccccc3)C2)C1 -7.23%
O=C(c1ccco1)N1CCC2(CCN(Cc3cc(C(F)(F)F)cc(C(F)(F)F)c3)CC2)CC1 -13.9%
CC(=O)OCCNC(=O)c1cccnc1 -15.1%
CN(C)c1ccc(O)c2c1C[C@H]1C[C@H]3[C@H](N(C)C)C(=O)C(C(N)=O)=C(O)[C@@]3(O)C(=O)C1=C2O
CN1CCc2cccc3c2[C@H]1Cc1ccc(O)c(O)c1-3
COc1ccccc1-c1ccc2ncnc(NCc3cnc(C)cn3)c2c1 -20.3%
CCOC(=O)C(C)(C)Oc1ccc(Cl)cc1
COc1ccc(OC)c(C(=O)N(Cc2cc3cccc(C)c3nc2N2CCC(O)CC2)C2CC2)c1 -24%
c1cnc2c(c1)ccc1cccnc12 8.63% [at 75.8 µM]
NS(=O)(=O)c1cc(-c2nn[nH]n2)c(NCc2cccs2)cc1Cl 18.6%
COc1cc2nc(N3CCCC(O)C3)c(CNCc3ccccc3C(F)(F)F)cc2c(OC)c1OC (centres undefined) 2.65%
CC(C)NC[C@H](O)COc1ccc(CC(N)=O)cc1
COc1ccc(-c2nc3cnc(N(C)C)nc3n(Cc3ccc(F)cc3)c2=O)cc1 6.68%
COC(=O)[C@H](CC(C)C)N(Cc1ccccc1)S(=O)(=O)N(Cc1ccc(OC)cc1)[C@@H](CC(C)C)C(=O)OC -21.1%
O=C(CCn1c(=O)[nH]c2ccccc21)NCC1Cc2cc(Cl)cc(-c3ccncc3)c2O1 (centres undefined) 12.8%
O=C(Oc1ccccc1)N1CCC2(CC1)CN(c1ccncc1)C2 9.04%
Cc1ccccc1-c1nc(NC2CC2)c2ccccc2n1 -2.62%
Cn1cccc1C(=O)N1CCC2(CCN(C(=O)Nc3cccc(C#N)c3)CC2)CC1 21.3%
